Source: patent US20220265842A1, “ANTI-CD40 ANTIBODY DRUG CONJUGATES” (priority 2017, published 2022)

B1: Example 28-conjugated (human) (n=2) (conjugate)
heavy: EVQLVESGGGLVKPGGSLRLSCAASGFTFSDYGMNWVRQAPGKGLEWIAYISSGRGNIYYADTVKGRFTISRDNAKNSLYLQMNSLRAEDTAVYYCARSWGYFDVWGQGTTVTVSSASTKGPSVFPLAPSSKSTSGGTAALGCLVKDYFPEPVTVSWNSGALTSGVHTFPAVLQSSGLYSLSSVVTVPSSSLGTQTYICNVNHKPSNTKVDKKVEPKSCDKTHTCPPCPAPEAAGGPSVFLFPPKPKDQLMISRTPEVTCVVVDVSHEDPEVKFNWYVDGVEVHNAKTKPREEQYNSTYRVVSVLTVLHQDWLNGKEYKCKVSNKALPAPIEKTISKAKGQPREPQVYTLPPSREEMTKNQVSLTCLVKGFYPSDIAVEWESNGQPENNYKTTPPVLDSDGSFFLYSKLTVDKSRWQQGNVFSCSVLHEALHNHYTQKSLSLSPGK
light: DIVMTQSPDSLAVSLGERATINCKSSQSLLNRGNQKNYLTWFQQKPGQPPKLLIYWASTRESGVPDRFSGSGSGTDFTLTISSLQAEDVAVYYCQNDYTYPLTFGQGTKLEIKRTVAAPSVFIFPPSDEQLKSGTASVVCLLNNFYPREAKVQWKVDNALQSGNSQESVTEQDSKDSTYSLSSTLTLSKADYEKHKVYACEVTHQGLSSPVTKSFNRGEC
B2: Example 28-conjugated (human) (n=4) (conjugate)
heavy: EVQLVESGGGLVKPGGSLRLSCAASGFTFSDYGMNWVRQAPGKGLEWIAYISSGRGNIYYADTVKGRFTISRDNAKNSLYLQMNSLRAEDTAVYYCARSWGYFDVWGQGTTVTVSSASTKGPSVFPLAPSSKSTSGGTAALGCLVKDYFPEPVTVSWNSGALTSGVHTFPAVLQSSGLYSLSSVVTVPSSSLGTQTYICNVNHKPSNTKVDKKVEPKSCDKTHTCPPCPAPEAAGGPSVFLFPPKPKDQLMISRTPEVTCVVVDVSHEDPEVKFNWYVDGVEVHNAKTKPREEQYNSTYRVVSVLTVLHQDWLNGKEYKCKVSNKALPAPIEKTISKAKGQPREPQVYTLPPSREEMTKNQVSLTCLVKGFYPSDIAVEWESNGQPENNYKTTPPVLDSDGSFFLYSKLTVDKSRWQQGNVFSCSVLHEALHNHYTQKSLSLSPGK
light: DIVMTQSPDSLAVSLGERATINCKSSQSLLNRGNQKNYLTWFQQKPGQPPKLLIYWASTRESGVPDRFSGSGSGTDFTLTISSLQAEDVAVYYCQNDYTYPLTFGQGTKLEIKRTVAAPSVFIFPPSDEQLKSGTASVVCLLNNFYPREAKVQWKVDNALQSGNSQESVTEQDSKDSTYSLSSTLTLSKADYEKHKVYACEVTHQGLSSPVTKSFNRGEC
B3: Example 13-hydrolyzed (human) (conjugate)
heavy: EVQLVESGGGLVKPGGSLRLSCAASGFTFSDYGMNWVRQAPGKGLEWIAYISSGRGNIYYADTVKGRFTISRDNAKNSLYLQMNSLRAEDTAVYYCARSWGYFDVWGQGTTVTVSSASTKGPSVFPLAPSSKSTSGGTAALGCLVKDYFPEPVTVSWNSGALTSGVHTFPAVLQSSGLYSLSSVVTVPSSSLGTQTYICNVNHKPSNTKVDKKVEPKSCDKTHTCPPCPAPEAAGGPSVFLFPPKPKDQLMISRTPEVTCVVVDVSHEDPEVKFNWYVDGVEVHNAKTKPREEQYNSTYRVVSVLTVLHQDWLNGKEYKCKVSNKALPAPIEKTISKAKGQPREPQVYTLPPSREEMTKNQVSLTCLVKGFYPSDIAVEWESNGQPENNYKTTPPVLDSDGSFFLYSKLTVDKSRWQQGNVFSCSVLHEALHNHYTQKSLSLSPGK
light: DIVMTQSPDSLAVSLGERATINCKSSQSLLNRGNQKNYLTWFQQKPGQPPKLLIYWASTRESGVPDRFSGSGSGTDFTLTISSLQAEDVAVYYCQNDYTYPLTFGQGTKLEIKRTVAAPSVFIFPPSDEQLKSGTASVVCLLNNFYPREAKVQWKVDNALQSGNSQESVTEQDSKDSTYSLSSTLTLSKADYEKHKVYACEVTHQGLSSPVTKSFNRGEC
B4: Example 12-hydrolyzed (human) (conjugate)
heavy: EVQLVESGGGLVKPGGSLRLSCAASGFTFSDYGMNWVRQAPGKGLEWIAYISSGRGNIYYADTVKGRFTISRDNAKNSLYLQMNSLRAEDTAVYYCARSWGYFDVWGQGTTVTVSSASTKGPSVFPLAPSSKSTSGGTAALGCLVKDYFPEPVTVSWNSGALTSGVHTFPAVLQSSGLYSLSSVVTVPSSSLGTQTYICNVNHKPSNTKVDKKVEPKSCDKTHTCPPCPAPEAAGGPSVFLFPPKPKDQLMISRTPEVTCVVVDVSHEDPEVKFNWYVDGVEVHNAKTKPREEQYNSTYRVVSVLTVLHQDWLNGKEYKCKVSNKALPAPIEKTISKAKGQPREPQVYTLPPSREEMTKNQVSLTCLVKGFYPSDIAVEWESNGQPENNYKTTPPVLDSDGSFFLYSKLTVDKSRWQQGNVFSCSVLHEALHNHYTQKSLSLSPGK
light: DIVMTQSPDSLAVSLGERATINCKSSQSLLNRGNQKNYLTWFQQKPGQPPKLLIYWASTRESGVPDRFSGSGSGTDFTLTISSLQAEDVAVYYCQNDYTYPLTFGQGTKLEIKRTVAAPSVFIFPPSDEQLKSGTASVVCLLNNFYPREAKVQWKVDNALQSGNSQESVTEQDSKDSTYSLSSTLTLSKADYEKHKVYACEVTHQGLSSPVTKSFNRGEC

What was measured:
[1] = test system: HEK293 parental GRE (pGL4.36[luc2P/MMTV/Hygro]) cells; assay: GRE reporter assay in parental cells without CD40; format: cell-based; conditions: anti-human CD40 ADCs; for HEK293 GRE EC50: 72 hours; for HEK293 GRE (% max): normalized to 100 nM dexamethasone
Experimental: In order to create a parental cell line, HEK293 cells were seeded onto a 6 well dish (Costar: 3516) with 2 mL of complete growth medium (RPMI, 10% FBS, 1% L-glutamine, 1% Na Pyruvate and 1% MEM NEAA) at 250,000 cells per well for 24 hours at 37° C., 5% CO2. The next day, 3 μg of pGL4.36[Luc2P/MMTV/Hygro] (Promega: E316) and 3 μl of PLUS reagent (Invitrogen: 10964-021) were diluted into 244 μL, Opti-MEM (Gibco: 31985-070) and incubated at room temperature for 15 minutes. The pGL4.36[luc2P/MMTV/Hygro] vector contains MMTV LTR (Murine Mammary Tumor Virus Long Terminal Repeat) that drives the transcription of the luciferase reporter gene luc2P in response to activation of several nuclear receptors such as glucocorticoid receptor and androgen receptor. After incubation, diluted DNA solution was pre-incubated with 1:1 Lipofectamine LTX solution (Invitrogen: 94756) (13.2 μl+256.8 μl Opti-MEM) and incubated at room temperature for 25 minutes to form DNA-Lipofectamine LTX complexes. After incubation, 500 μl of DNA-Lipofectamine complexes were added directly to the well containing cells. HEK293 cells were transfected for 24 hours at 37° C., 5% CO2. After incubation, cells were washed with 3 mL of phosphate buffer saline (PBS) and selected with complete growth medium containing 100 μg/mL of hygromycin B (Invitrogen: 10687-010) for two weeks. “HEK293 GRE pGL4.36[Luc2P/MMTV/Hygro]” cells were produced.
HEK293 parental GRE (pGL4.36[luc2P/MMTV/Hygro]) cells and HEK293 mCD40 or hCD40 GRE (pGL4.36[luc2P/MMTV/Hygro]) cells were plated onto 96 well tissue culture treated white plates (Costar: 3917) at 20,000 cells per well in 75 μL of assay medium (RPMI, 1% CSFBS, 1% L-glutamine, 1% Na Pyruvate and 1% MEAA) and incubated for 24h at 37° C., 5% CO2. The next day, cells were treated with 25 μL of 4× serial diluted murine or human anti-CD40 antibody drug conjugates in assay medium, steroid compound, or media alone and incubated for 72 hours at 37° C., 5% CO2. After 72 hours of incubation, cells were treated with 100 μL of Dual-Glo Luciferase Assay System (Promega-E2920) for 10 minutes and analyzed for luminescence using the Microbeta (PerkinElmer). Data were analyzed using a four parameter curve fit to generate EC50 values. Percent (%) maximum activation was normalized to 100 nM dexamethasone, which was considered maximum activation.

[2] = Size exclusion chromatography (SEC): monomer / aggregation of ADC; format: physicochemical; conditions: for % monomer: SEC, test articles of Table 17 (anti-human CD40 ADCs); for aggregation: purified DAR2 / DAR4 ADC fraction after AEC; for % monomer (SEC): test articles of Table 18
[3] = test system: LPS and CD40L-stimulated human monocyte-derived DCs (MoDCs); assay: LPS and CD40L-stimulated human MoDC cytokine release assay; format: cell-based; conditions: FIG. 2, IL-6 release

Row | Molecule | HEK293 GRE EC50 [1] [µg/mL] | HEK293 GRE (% max) [1] [%] | % monomer [2] [%] | aggregation [2] [%] | % monomer (SEC) [2] [%] | maximum capacity to inhibit immune cell activation compared with parental antagonist antibody [3]
1 | B1 | >50 | 82 | 100 | 0 | 100 | 
2 | B2 | >50 | 64 | 100 | 0 | 100 | 
3 | B3 | >50 | 27 | 99.8 |  | 99.8 | exceeds inhibition provided by the parental antagonist antibody
4 | B4 | >17 | 117 | 98.2 |  | 98.2 | exceeds inhibition provided by the parental antagonist antibody
